# Data from US20100285131A1 (published 2010).
# T1: cyno β-Klotho (cyno, UniProt A0A2K5WB58 53-996)
# T1 chain: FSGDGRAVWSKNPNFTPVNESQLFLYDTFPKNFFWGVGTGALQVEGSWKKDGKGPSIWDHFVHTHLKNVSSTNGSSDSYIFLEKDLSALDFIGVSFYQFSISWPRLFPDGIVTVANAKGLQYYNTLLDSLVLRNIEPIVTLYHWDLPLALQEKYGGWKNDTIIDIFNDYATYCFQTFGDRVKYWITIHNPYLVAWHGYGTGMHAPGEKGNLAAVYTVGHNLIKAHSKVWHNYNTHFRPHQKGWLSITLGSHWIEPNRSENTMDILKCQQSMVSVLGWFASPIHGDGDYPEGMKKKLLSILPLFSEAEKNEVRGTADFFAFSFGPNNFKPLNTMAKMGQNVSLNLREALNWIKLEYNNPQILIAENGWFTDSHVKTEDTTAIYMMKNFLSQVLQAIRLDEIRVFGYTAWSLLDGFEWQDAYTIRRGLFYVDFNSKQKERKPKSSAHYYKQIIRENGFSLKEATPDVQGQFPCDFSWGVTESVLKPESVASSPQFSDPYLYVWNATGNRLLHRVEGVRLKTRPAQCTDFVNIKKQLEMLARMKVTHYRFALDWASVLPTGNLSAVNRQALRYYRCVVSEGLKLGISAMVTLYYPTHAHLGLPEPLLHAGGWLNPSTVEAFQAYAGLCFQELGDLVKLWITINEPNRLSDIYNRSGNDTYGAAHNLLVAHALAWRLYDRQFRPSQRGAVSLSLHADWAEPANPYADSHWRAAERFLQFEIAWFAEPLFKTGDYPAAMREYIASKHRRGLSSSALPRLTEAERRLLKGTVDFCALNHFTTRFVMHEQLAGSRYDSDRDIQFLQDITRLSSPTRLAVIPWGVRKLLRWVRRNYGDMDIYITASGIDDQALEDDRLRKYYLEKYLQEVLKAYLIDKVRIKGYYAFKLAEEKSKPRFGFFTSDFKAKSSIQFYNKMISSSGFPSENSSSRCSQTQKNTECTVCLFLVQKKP
# B1: Fc-(G4S)3-FGF21 (L98R, P171G, A180E) (Fc fusion)
# chain: [skipping human IgG1 Fc]GGGGSGGGGSGGGGSHPIPDSSPLLQFGGQVRQRYLYTDDAQQTEAHLEIREDGTVGGAADQSPESLLQLKALKPGVIQILGVKTSRFLCQRPDGALYGSLHFDPEACSFRERLLEDGYNVYQSEAHGLPLHLPGNKSPHRDPAPRGPARFLPLPGLPPAPPEPPGILAPQPPDVGSSDPLSMVGGSQGRSPSYES
# B2: Fc-(L15)-FGF21 (L98R, P171G) (Fc fusion)
# chain: [skipping human IgG1 Fc]GGGGGSGGGSGGGGSHPIPDSSPLLQFGGQVRQRYLYTDDAQQTEAHLEIREDGTVGGAADQSPESLLQLKALKPGVIQILGVKTSRFLCQRPDGALYGSLHFDPEACSFRERLLEDGYNVYQSEAHGLPLHLPGNKSPHRDPAPRGPARFLPLPGLPPAPPEPPGILAPQPPDVGSSDPLSMVGGSQGRSPSYAS
# What was measured:
# human β-Klotho = human β-Klotho (human, UniProt Q86Z14 53-996); test: Biacore solution equilibrium binding; 10 nM human b-Klotho
# cyno β-Klotho [1] = biological target: T1, cyno β-Klotho; test: Biacore solution equilibrium binding; 25 nM cyno b-Klotho; plot key and legend give Fc-(G4S)3-FGF21 (L98R, P171G, A180E)
# cyno β-Klotho [2] = biological target: T1, cyno β-Klotho; test: Biacore solution equilibrium binding; 25 nM cyno b-Klotho
# Chain of human β-Klotho (Q86Z14 53-996): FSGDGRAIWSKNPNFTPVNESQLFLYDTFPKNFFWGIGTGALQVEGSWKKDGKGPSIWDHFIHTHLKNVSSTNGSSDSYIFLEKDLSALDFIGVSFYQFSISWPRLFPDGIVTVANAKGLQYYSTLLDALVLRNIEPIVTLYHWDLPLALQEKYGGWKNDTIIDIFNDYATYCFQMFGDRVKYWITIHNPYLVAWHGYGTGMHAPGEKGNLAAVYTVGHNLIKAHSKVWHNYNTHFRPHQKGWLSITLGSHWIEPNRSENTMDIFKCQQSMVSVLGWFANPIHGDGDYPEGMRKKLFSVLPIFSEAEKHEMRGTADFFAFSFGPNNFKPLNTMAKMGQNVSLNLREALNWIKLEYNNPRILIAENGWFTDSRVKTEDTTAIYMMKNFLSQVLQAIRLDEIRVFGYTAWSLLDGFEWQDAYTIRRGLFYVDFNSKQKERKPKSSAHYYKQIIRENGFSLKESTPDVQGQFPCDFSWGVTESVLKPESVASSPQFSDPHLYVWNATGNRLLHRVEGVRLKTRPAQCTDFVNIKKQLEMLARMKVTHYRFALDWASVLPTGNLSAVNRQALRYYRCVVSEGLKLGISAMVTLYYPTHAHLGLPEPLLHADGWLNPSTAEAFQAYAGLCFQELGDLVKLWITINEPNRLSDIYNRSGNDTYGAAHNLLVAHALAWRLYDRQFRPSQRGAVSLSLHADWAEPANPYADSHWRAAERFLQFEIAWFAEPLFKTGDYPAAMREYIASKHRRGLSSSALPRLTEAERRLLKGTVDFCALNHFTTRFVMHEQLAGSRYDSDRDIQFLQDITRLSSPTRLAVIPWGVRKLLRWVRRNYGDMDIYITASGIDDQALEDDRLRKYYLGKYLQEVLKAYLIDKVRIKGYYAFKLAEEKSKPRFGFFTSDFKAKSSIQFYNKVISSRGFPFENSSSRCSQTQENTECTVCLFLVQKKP
Binder,EC50 (human β-Klotho) [nM],EC50 (cyno β-Klotho [1]) [nM],EC50 (cyno β-Klotho [2]) [nM]
B1,12.9,10.4,–
B2,32.2,–,30.8
